# According to the supplement of paper PMC8728848:
# The other results are listed elsewhere or left out.
# How the values were obtained:
# Assay in all cases: glycan array binding signal (z-score within array); higher = stronger binding
# Conditions in all cases: glycan notation: IUPAC condensed, linker removed
# [1] = target: Neu5Ac(a2-3)Gal(b1-4)GlcNAc(b1-3)Gal(b1-4)GlcNAc(b1-3)Gal(b1-4)GlcNAc(b1-2)Man(a1-3)[Neu5Ac(a2-3)Gal(b1-4)GlcNAc(b1-3)Gal(b1-4)GlcNAc(b1-3)Gal(b1-4)GlcNAc(b1-2)Man(a1-6)]GalNAc
# Procedure, shortened: (§1)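 Arrays were curated from the Consortium for Functional Glycomics database, 3228 in total, and kept only where the protein sequence was available. Binding is expressed as a within-array Z-score. This score was averaged across arrays of the same protein sequence at different concentrations or buffers and across linkers, and negative values can be read as non-binding.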
# [2] = target: Neu5Ac(a2-3)Gal(b1-4)GlcNAc(b1-3)Gal(b1-4)GlcNAc(b1-3)GalNAc
# Procedure, shortened: as §1
# [3] = target: Neu5Ac(a2-3)Gal(b1-4)GlcNAc(b1-3)Gal(b1-4)GlcNAc(b1-3)[Neu5Ac(a2-3)Gal(b1-4)GlcNAc(b1-3)Gal(b1-4)GlcNAc(b1-6)]GalNAc
# Procedure, shortened: as §1
# [4] = target: Neu5Ac(a2-3)Gal(b1-4)GlcNAc(b1-3)Gal(b1-4)GlcNAc(b1-6)[Gal(b1-3)]GalNAc
# Procedure, shortened: as §1
# [5] = target: Neu5Ac(a2-3)Gal(b1-4)GlcNAc(b1-3)Gal(b1-4)[Fuc(a1-3)]GlcNAc
# Procedure, shortened: as §1
# [6] = target: Neu5Ac(a2-3)Gal(b1-4)GlcNAc(b1-3)GalNAc
# Procedure, shortened: as §1
# [7] = target: Neu5Ac(a2-3)Gal(b1-4)GlcNAc(b1-3)[Neu5Ac(a2-3)Gal(b1-4)GlcNAc(b1-6)]GalNAc
# Procedure, shortened: as §1
# [8] = target: Neu5Ac(a2-3)Gal(b1-4)GlcNAc(b1-6)GalNAc
# Procedure, shortened: as §1
# [9] = target: Neu5Ac(a2-3)Gal(b1-4)GlcNAc(b1-6)[Gal(b1-3)]GalNAc
# Procedure, shortened: as §1
# [10] = target: Neu5Ac(a2-3)Gal(b1-4)GlcNAc(b1-6)[Neu5Ac(a2-3)Gal(b1-3)]GalNAc
# Procedure, shortened: as §1
# [11] = target: Neu5Ac(a2-3)Gal(b1-4)GlcNAc6S
# Procedure, shortened: as §1
# [12] = target: Neu5Ac(a2-3)Gal(b1-4)[Fuc(a1-3)]GlcNAc
# Procedure, shortened: as §1
# [13] = target: Neu5Ac(a2-3)Gal(b1-4)[Fuc(a1-3)]GlcNAc(b1-2)Man
# Procedure, shortened: as §1
# [14] = target: Neu5Ac(a2-3)Gal(b1-4)[Fuc(a1-3)]GlcNAc(b1-3)Gal
# Procedure, shortened: as §1
# [15] = target: Neu5Ac(a2-3)Gal(b1-4)[Fuc(a1-3)]GlcNAc(b1-3)Gal(b1-4)GlcNAc
# Procedure, shortened: as §1
# [16] = target: Neu5Ac(a2-3)Gal(b1-4)[Fuc(a1-3)]GlcNAc(b1-3)Gal(b1-4)[Fuc(a1-3)]GlcNAc(b1-3)Gal(b1-4)[Fuc(a1-3)]GlcNAc
# Procedure, shortened: as §1
# [17] = target: Neu5Ac(a2-3)Gal(b1-4)[Fuc(a1-3)]GlcNAc(b1-3)GalNAc
# Procedure, shortened: as §1
# [18] = target: Neu5Ac(a2-3)Gal(b1-4)[Fuc(a1-3)]GlcNAc(b1-6)[Gal(b1-3)]GalNAc
# Procedure, shortened: as §1
# [19] = target: Neu5Ac(a2-3)Gal(b1-4)[Fuc(a1-3)]GlcNAc(b1-6)[Neu5Ac(a2-3)Gal(b1-3)]GalNAc
# Procedure, shortened: as §1
# [20] = target: Neu5Ac(a2-3)Gal(b1-4)[Fuc(a1-3)]GlcNAc6S
# Procedure, shortened: as §1
# [21] = target: Neu5Ac(a2-3)Gal6S(b1-4)GlcNAc
# Procedure, shortened: as §1
# [22] = target: Neu5Ac(a2-3)Gal6S(b1-4)[Fuc(a1-3)]GlcNAc
# Procedure, shortened: as §1
# Neu5Ac(a2-3)GalNAc = target: Neu5Ac(a2-3)GalNAc
# Procedure, shortened: as §1
binder,measurement,setting,value
F17-L (Escherichia coli) (protein) GPDDYVPSQIAVNTSTLPGVVIGPADAHTYPRVIGELAGTSNQYVFNGGAIALMRGKFTPALPKIGSITYTFHQGNSRDSSDFDIYDIGVSGLGIIIGMAGYWPATPLVPINSSGIYIDPVGANTNPNTYNGATASFGARLFVAFVATGRLPNGYITIPTRQLGTILLEAKRTSLNNKGLTAPVMLNGGRIQVQSQTHHHHHH,glycan array binding signal (z-score),[1],-0.031
same,glycan array binding signal (z-score),[2],-0.144
same,glycan array binding signal (z-score),[3],-0.087
same,glycan array binding signal (z-score),[4],-0.139
same,glycan array binding signal (z-score),[5],0.006
same,glycan array binding signal (z-score),[6],-0.16
same,glycan array binding signal (z-score),[7],0.084
same,glycan array binding signal (z-score),[8],-0.122
same,glycan array binding signal (z-score),[9],-0.084
same,glycan array binding signal (z-score),[10],-0.034
same,glycan array binding signal (z-score),[11],-0.018
same,glycan array binding signal (z-score),[12],-0.109
same,glycan array binding signal (z-score),[13],-0.12
same,glycan array binding signal (z-score),[14],-0.181
same,glycan array binding signal (z-score),[15],-0.046
same,glycan array binding signal (z-score),[16],-0.119
same,glycan array binding signal (z-score),[17],-0.028
same,glycan array binding signal (z-score),[18],-0.165
same,glycan array binding signal (z-score),[19],-0.152
same,glycan array binding signal (z-score),[20],-0.124
same,glycan array binding signal (z-score),[21],-0.06
same,glycan array binding signal (z-score),[22],-0.031
same,glycan array binding signal (z-score),Neu5Ac(a2-3)GalNAc,0.19
